Like-named read-outs stand apart in the source and are kept apart here.
Target: T1, androgen receptor (AR) isolated from rat ventral prostate (Rattus norvegicus, UniProt P15207)
T1 sequence (P15207 1-902): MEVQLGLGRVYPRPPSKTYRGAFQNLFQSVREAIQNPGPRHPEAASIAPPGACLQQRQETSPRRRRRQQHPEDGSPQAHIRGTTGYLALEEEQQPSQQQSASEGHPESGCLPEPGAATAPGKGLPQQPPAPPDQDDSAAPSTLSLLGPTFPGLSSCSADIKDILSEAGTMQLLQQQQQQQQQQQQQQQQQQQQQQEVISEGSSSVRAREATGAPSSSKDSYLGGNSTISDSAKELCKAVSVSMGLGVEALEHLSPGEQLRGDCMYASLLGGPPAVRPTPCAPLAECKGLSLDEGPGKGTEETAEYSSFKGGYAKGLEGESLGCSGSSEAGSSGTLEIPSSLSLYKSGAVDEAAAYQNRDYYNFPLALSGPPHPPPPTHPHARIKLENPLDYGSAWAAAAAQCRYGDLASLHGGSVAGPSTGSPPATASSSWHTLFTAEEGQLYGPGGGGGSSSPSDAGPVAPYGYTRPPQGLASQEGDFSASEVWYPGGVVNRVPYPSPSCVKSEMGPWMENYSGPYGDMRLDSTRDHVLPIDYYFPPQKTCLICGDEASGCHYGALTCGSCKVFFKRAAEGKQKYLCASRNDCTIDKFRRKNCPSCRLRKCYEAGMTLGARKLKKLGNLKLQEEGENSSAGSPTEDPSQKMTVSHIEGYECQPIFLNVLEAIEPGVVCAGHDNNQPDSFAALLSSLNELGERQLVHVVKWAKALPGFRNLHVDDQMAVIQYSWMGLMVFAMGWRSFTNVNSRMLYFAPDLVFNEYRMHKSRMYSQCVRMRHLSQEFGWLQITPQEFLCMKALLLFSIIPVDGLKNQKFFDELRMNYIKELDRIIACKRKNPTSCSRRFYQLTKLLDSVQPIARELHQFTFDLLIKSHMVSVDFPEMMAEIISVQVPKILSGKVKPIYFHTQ
Test: biochemical
Assay type: binding
Details: for RBA: 3H-mibolerone, rat ventral prostate AR

[1] = Table 5 (Example 4), read-out: Ki
[2] = Table 1, B-ring halogenated SARMs, read-out: Ki

For `C[C@](O)(COc1ccc(Br)cc1)C(=O)Nc1ccc(Br)c(C(F)(F)F)c1` [Compound 14], the Ki was 25.9 ± 0.04 nM.

`C[C@](O)(COc1ccc(F)cc1)C(=O)Nc1ccc(Cl)c(C(F)(F)F)c1` [Compound 10] was tested, and the Ki was 14.5 ± 0.18 nM.

With `C[C@](O)(COc1ccc(C#N)cc1)C(=O)Nc1ccc(C#N)c(C(F)(F)F)c1` [Compound N-4] the RBA was 17%.

Work on `C[C@](O)(COc1ccc(F)cc1)C(=O)Nc1cccc(C(F)(F)F)c1` [Compound 15] yielded a Ki [1] of 62 ± 0.05 nM.

For `C[C@](O)(CBr)C(=O)Nc1ccc(Cl)c(C(F)(F)F)c1` [Compound 9], the Ki [1] was 22.2 ± 0.17 nM.

With `C[C@](O)(COc1ccc(F)cc1)C(=O)Nc1ccc(I)c(C(F)(F)F)c1` [Compound 12] the Ki was 15.6 ± 0.19 nM.

`C[C@](O)(COc1ccc([N+](=O)[O-])cc1)C(=O)Nc1ccc([N+](=O)[O-])c(C(F)(F)F)c1` [Compound N-1] gave an RBA of 30%.

For `C[C@](O)(COc1ccc2[nH]ccc2c1)C(=O)Nc1ccc([N+](=O)[O-])c(C(F)(F)F)c1` [Compound 20], the Ki [1] was 17 ± 0.64 nM.

`C[C@](O)(COc1ccc(F)cc1)C(=O)Nc1ccc([N+](=O)[O-])c2nonc12` [Compound 17] gave a Ki greater than 1800 nM.

`C[C@](O)(COc1ccc(F)cc1)C(=O)Nc1ccc(C#N)c(I)c1` [Compound 16] gave a Ki [1] of 3.5 ± 0.13 nM.

For `CC(=O)Nc1ccc(OC[C@](C)(O)C(=O)Nc2ccc(C#N)c(C(F)(F)F)c2)cc1` [Compound 8], the Ki [1] was 12.7 ± 0.03 nM.

Work on `C[C@](O)(COc1ccc(F)cc1)C(=O)Nc1ccc(C#N)c(Cl)c1` [Compound 7] yielded a Ki [1] of 4.5 ± 0.11 nM.

Compound `C[C@](O)(COc1ccc([N+](=O)[O-])cc1)C(=O)Nc1ccc(C#N)c(C(F)(F)F)c1` [Compound N-3] has an RBA of 32%.

`C[C@](O)(COc1ccc(I)cc1)C(=O)Nc1ccc([N+](=O)[O-])c(C(F)(F)F)c1` [Compound 4] gave a Ki [2] of 23 ± 1.6 nM.

For `C[C@](O)(COc1ccc(F)cc1)C(=O)Nc1ccc(F)c(C(F)(F)F)c1` [Compound 11], the Ki was 32.6 ± 0.1 nM.

`C[C@](O)(COc1ccc(C#N)cc1)C(=O)Nc1ccc([N+](=O)[O-])c(C(F)(F)F)c1` [Compound N-2] gave an RBA of 26%.

Compound `C[C@](O)(COc1ccc(Br)cc1)C(=O)Nc1ccc([N+](=O)[O-])c(C(F)(F)F)c1` [Compound 3] has a Ki [2] of 12.6 ± 1.8 nM.
